Experimental data as given in PubChem BioAssay (NCI).
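Exposure lasted 48 hours, with cells grown in 96-well plates and compounds tested at five concentrations. At the GI50, growth is halved. TGI is the concentration that stops growth completely.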

Tested on: NCI-H322M lung
Test: DTP human tumour cell line panel, 48 h

Q: Which GI50 does the source give for `CN1CCN(Cc2ccc(NC(=O)c3cncc(C#Cc4cnn5cccnc45)c3)cc2C(F)(F)F)CC1` here?
A: Its GI50 is 3.29 µM.

Q: And the TGI?
A: The TGI was 10.4 µM.
